Data on 109 sequences can be found in paper PMC6212790.

The other results are listed elsewhere or left out. At the low end of the ranking the order means little.

The assay concerns the target T1, GST-Rok-C97-191 (UniProt O34857).
T1 sequence: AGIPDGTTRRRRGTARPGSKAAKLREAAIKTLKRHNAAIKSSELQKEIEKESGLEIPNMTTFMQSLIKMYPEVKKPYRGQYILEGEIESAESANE
Kind of assay: protein binding microarray.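 Further: rank score from −0.5 (least bound) to 0.5 (best bound).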 Particulars: Rok is a gene silencer of Bacillus subtilis; high values mean tight binding; most listed sequences are background and not binding sites; double strand, one strand shown.
Consider ATCGCAAT, for which the binding signal stood at 0.132 E-score.

Consider AGCCTGAT, for which the binding signal was -0.00651 E-score. Then ACCGCCCT, with 0.00575 E-score.

Turning to TAAAATGA, the binding signal was 0.174 E-score. In turn, CAAGGAGG showed a binding signal of -0.291 E-score.

For the sequence ATAGCTAT, the binding signal came to 0.402 E-score. The result for AGCACAGA reads -0.182 E-score; that for GTGCGAAA, -0.101 E-score. CAAGTGGG: the binding signal is -0.0514 E-score. For CCCATTAG, the binding signal is -0.0527 E-score. Then GTCCAAAA, with -0.0954 E-score. The result for ACCCGGTC reads -0.167 E-score; that for CGATAATA, 0.157 E-score; that for GACGCATC, -0.11 E-score. Sequence ATGCCCAC had a binding signal of -0.129 E-score. Then GTCTCATA, with 0.00498 E-score; and CATGCGGC, with -0.201 E-score; and ACTGGATA, with 0.117 E-score. ATGCAAGG gave a binding signal of 0.0151 E-score. ACGTACAC showed a binding signal of -0.0132 E-score. Then AATTTTAA, with 0.19 E-score. The result for CCGCTTCC reads -0.128 E-score; that for GCGCAAGC, -0.257 E-score; that for CGTGAACC, -0.0997 E-score. Turning to GAGTGCCC, the binding signal was -0.108 E-score. The sequence TAGCTTAA displayed a binding signal of 0.0561 E-score. Turning to AGACACAC, the binding signal was -0.113 E-score. The sequence GCTGTACC displayed a binding signal of -0.0769 E-score. The result for TCCATGAA reads -0.102 E-score; that for CATAGGCG, -0.0494 E-score; that for TAACGTTA, 0.339 E-score. Then ACAACCAG, with -0.00331 E-score; and AGTGGCAC, with -0.117 E-score; and CTTAGAGA, with -0.0725 E-score. The result for AGCCTTTC reads -0.151 E-score.

CTGGCCTA: the binding signal is -0.239 E-score. For ACCAAAGT, the binding signal was -0.0178 E-score. Then GTTATGCA, with 0.256 E-score; and ACCATATG, with 0.229 E-score; and ATACATAA, with 0.273 E-score. The sequence CGGTTGTC had a binding signal of -0.0619 E-score. Then CCCAGGAG, with -0.231 E-score; and AACTTGAA, with 0.0361 E-score. In the case of CAGGCAGC, the binding signal was -0.3 E-score.

For the sequence ACTTTTGG, the binding signal is -0.12 E-score.

As for ACATTGGA, the binding signal was determined as 0.129 E-score. Then ATTACTCC, with 0.158 E-score; and ACTATATG, with 0.283 E-score; and CGCGTTTA, with 0.0562 E-score. In the case of AGTGGGAC, the binding signal is -0.00867 E-score. The result for CAGGCCCG reads -0.256 E-score; that for CAATTATC, 0.239 E-score; that for CACTAGAC, 0.00587 E-score. The result for CTCAGTTC reads 0.108 E-score; that for GAGTCGGA, -0.353 E-score. The result for AAGTTAAA reads 0.219 E-score; that for AACGGTGT, 0.011 E-score; that for CATGATAA, 0.2 E-score. In turn, GTATTCAC yielded a binding signal of -0.00894 E-score. The result for CAGCGCTC reads -0.258 E-score; that for ATGCCAGC, 0.00272 E-score; that for GATAAGGA, -0.0856 E-score. CCGCTAAC: the binding signal was -0.0411 E-score. For ACTCTCGG, the binding signal was found to be 0.16 E-score. The sequence TAAGTGGA registered a binding signal of -0.0333 E-score. TCAACGCA showed a binding signal of 0.129 E-score. Turning to GCTCGGGA, the binding signal is -0.223 E-score.

Turning to CAGGGGCC, the binding signal was -0.294 E-score. The result for CATACGAA reads -0.0328 E-score. In turn, AGTAAAGC registered a binding signal of -0.16 E-score.

In the case of AGAAGGAG, the binding signal was -0.224 E-score. The result for AAACAGAT reads 0.0906 E-score; that for ACGCATCA, -0.0338 E-score. The result for CCTTACAC reads -0.00833 E-score. On to AAAGTGTT, for which the binding signal was 0.0235 E-score. The result for GCCTGACC reads -0.299 E-score. Then CAAGATGC, with -0.274 E-score. Take ACAAGGTG: the binding signal is -0.0602 E-score. Sequence AAGTGTGC returned a binding signal of -0.0368 E-score.

On to GGTGAGCA, for which the binding signal was -0.19 E-score. Then AAGACACT, with -0.113 E-score. The result for ACGAGGCC reads -0.312 E-score; that for GCCCTGAC, -0.242 E-score. CTCATGGA displayed a binding signal of -0.0916 E-score. For ACTGCTGA, the binding signal was 0.128 E-score. Then ATTCCAAT, with -0.0161 E-score. As to GGAGCTTA, the binding signal is -0.00123 E-score. The sequence GGATTGCC showed a binding signal of -0.199 E-score.

As for CGGATCCG, the binding signal was -0.189 E-score. In turn, CACCTCTC returned a binding signal of -0.298 E-score. The result for AAATCCGC reads 0.00233 E-score; that for GTACTGTA, 0.219 E-score. Regarding CCAGAGGA, the binding signal was -0.0798 E-score. Then AGTACCTA, with 0.304 E-score. Then ACTGTGTG, with 0.0591 E-score. Sequence CAAGAACC displayed a binding signal of -0.0441 E-score. The result for ATTATGAC reads 0.0185 E-score; that for ATCAGTAC, 0.0531 E-score; that for AGCAGTTA, 0.0574 E-score. Consider GTGAGTCA, for which the binding signal is -0.166 E-score. The result for ATCCCGCG reads -0.108 E-score. The result for ACGCCTGA reads 0.0317 E-score; that for GGGGTGGA, -0.258 E-score; that for CACATCCC, -0.234 E-score.

For the sequence ACCCACTG, the binding signal is -0.0641 E-score.

The sequence GAAGCCCA gave a binding signal of -0.375 E-score. The result for AACGTCGC reads 0.0434 E-score; that for AAACATCT, -0.0723 E-score. The sequence AAATGACT displayed a binding signal of 0.0718 E-score.
